Whole data set: some 33,000 sequences, median “E-score (-0.5 to 0.5)” near -0.043, cut for the highest 2% near 0.37. Some of the results follow.

The assay addresses T1, Upc2 (UniProt Q12151).
T1 sequence: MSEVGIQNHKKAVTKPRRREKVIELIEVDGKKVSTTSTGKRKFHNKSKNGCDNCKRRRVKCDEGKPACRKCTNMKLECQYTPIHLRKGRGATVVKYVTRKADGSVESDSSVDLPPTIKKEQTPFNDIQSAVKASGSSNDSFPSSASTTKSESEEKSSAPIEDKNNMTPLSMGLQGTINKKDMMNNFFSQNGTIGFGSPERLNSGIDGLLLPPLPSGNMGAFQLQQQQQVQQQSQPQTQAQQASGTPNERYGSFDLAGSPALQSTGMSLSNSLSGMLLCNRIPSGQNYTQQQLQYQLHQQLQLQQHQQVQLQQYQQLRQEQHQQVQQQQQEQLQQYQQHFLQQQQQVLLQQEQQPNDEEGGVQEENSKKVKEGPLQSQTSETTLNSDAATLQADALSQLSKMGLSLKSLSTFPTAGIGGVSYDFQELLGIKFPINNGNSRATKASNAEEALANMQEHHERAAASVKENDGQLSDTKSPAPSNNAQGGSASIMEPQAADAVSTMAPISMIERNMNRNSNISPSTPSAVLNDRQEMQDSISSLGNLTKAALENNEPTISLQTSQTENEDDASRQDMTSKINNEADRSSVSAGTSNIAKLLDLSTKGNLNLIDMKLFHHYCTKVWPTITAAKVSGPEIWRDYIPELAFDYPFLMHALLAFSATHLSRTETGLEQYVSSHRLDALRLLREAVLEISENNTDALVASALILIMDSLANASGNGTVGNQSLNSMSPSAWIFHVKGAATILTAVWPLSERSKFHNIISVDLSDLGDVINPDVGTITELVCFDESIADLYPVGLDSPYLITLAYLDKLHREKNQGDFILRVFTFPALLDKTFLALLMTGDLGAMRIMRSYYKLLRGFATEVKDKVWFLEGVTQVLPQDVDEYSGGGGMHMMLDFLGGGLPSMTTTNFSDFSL
Nature of the assay: PBM E-score (8-mer binding enrichment) (E-score (-0.5 to 0.5)); higher = stronger / more preferred TF binding; most listed sequences are background and not binding sites. The note with it: protein concentration: 200 nM; construct: GST-full length. Put shortly:
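Detection of bound protein used fluorescent anti-GST, with scans normalised by masliner. The proteins were GST-tagged yeast transcription factors applied at about 100-200 nM to universal all-10-mer Agilent arrays made double-stranded by primer extension. Each ungapped eight-base word, pooled with its reverse complement, was scored with an E-score from the Universal PBM Analysis Suite.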
For ACACGACG, the “PBM E-score” value amounted to 0.267.
Turning to AATCAAGT, the “PBM E-score” value is -0.106.
The value for ACTAGAAT was 0.0374.
AACTATGT: the “PBM E-score” value was -0.187.
The value for ACCAGGGA was -0.189; that for CCGGGGAG was -0.206; that for AGCATTTG was -0.201.
In the case of AAAGAAGG, the “PBM E-score” value is -0.138.
The value for GCGAAAGC was 0.00449.
The value for AGTACAGG was 0.0302.
The value for ATAATGTC was 0.00514; that for CCGTAACA was 0.22.
As for CGGCTGGC, the “PBM E-score” value stood at 0.0413.
The value for CACTCATA was 0.0482; that for CGATGCCA was -0.0744.
The value for AATTGTTG was -0.188; that for GATAAAGA was 0.0607.
The value for ACAGATTG was -0.127; that for AAGGGCTC was -0.177; that for GTGACTCA was -0.0695.
On to ACCACCTG, for which the “PBM E-score” value is -0.0336.
The value for GCAGTCAC was -0.136.
The value for CAAACCGC was -0.265; that for ACGCGCAA was 0.175; that for ACCAATGC was -0.0345.
The value for CCATCCGG was -0.213; that for CGATATAA was 0.157.
In the case of AGAATTGG, the “PBM E-score” value was -0.195.
The value for CCGGAAAA was 0.0284.
The value for AATTTGGA was -0.133.
The value for CAAAGTAA was 0.0118; that for ACCCTTCG was -0.0337; that for ACTTCAAA was 0.00377.
As to ACTTTCGG, the “PBM E-score” value was -0.106.
Regarding AACGATTC, the “PBM E-score” value worked out at 0.393.
As to CAAGTCGG, the “PBM E-score” value was -0.0551.
In the case of GTAGGCAC, the “PBM E-score” value was -0.077.
The value for CTACACAG was -0.194; that for ATGACGAA was 0.0841.
The value for CTACCAGC was 0.00982.
The value for ACTCGGAC was -0.0554.
Turning to CAGAGGGC, the “PBM E-score” value was -0.324.
The value for ACTACAGG was -0.0483; that for AGTTTGAG was -0.136; that for AGTATGAA was 0.00208.
The value for AGACTGCC was -0.015.
The value for CACCACCG was -0.119.
With ACTAAGCT, the “PBM E-score” value was -0.0599.
The value for AGAAGCGG was -0.222; that for CCGTGGGC was -0.0217.
The value for AGCCAGTC was -0.162; that for ATGAGGCA was -0.0685; that for GACGTTGC was 0.0429.
The value for ATATGCGC was 0.00411; that for ATATCATA was 0.234.
As to AGGTACCC, the “PBM E-score” value is -0.277.
Regarding CTTATAGC, the “PBM E-score” value turned out to be 0.181.
CATCCAAC: the “PBM E-score” value is -0.182.
GCAGTCGC: the “PBM E-score” value came to 0.0558.
The value for ATAGGGGA was -0.186; that for GGCCGTGA was -0.161; that for CGGCACCG was 0.133.
The value for AATGCCGC was 0.0774; that for CACGACTC was 0.0449.
The value for GAACAACC was -0.0117; that for CAATGCTC was -0.0336.
On to ATTGTAAG, for which the “PBM E-score” value was -0.0571.
The value for CAAACTTG was -0.0902.
The value for CATAGTAG was 0.138; that for CTATGAGC was -0.12.
Consider AAGTCCCC, for which the “PBM E-score” value is -0.0701.
Consider AACCCGGG, for which the “PBM E-score” value is -0.101.
The value for GAGGGTGA was -0.149; that for TAGCTAGA was -0.114; that for AAGTACGG was 0.209.
The value for TACACCGA was 0.0294; that for ATATGCCA was -0.0107; that for AACCCGGT was -0.0316.
The value for GAAAAGGC was -0.0151.
AACACATA: the “PBM E-score” value stood at 0.102.
The value for GTGCCTGA was -0.197; that for TCAACAAA was -0.0193; that for ACGCGCAC was 0.0784.
The value for GAAGAGCA was -0.32; that for CAAGAGCA was -0.269.
Take ATCCACCA: the “PBM E-score” value was -0.176.
The value for CCACGCAA was -0.0859; that for CTTGCTTA was -0.255; that for CCACCGAC was -0.23.
The value for AAAGAGAT was 0.0315; that for TACAGATA was 0.0525; that for AATCCTGC was -0.122.
On to ACAACGGT, for which the “PBM E-score” value was determined as 0.115.
For the sequence ACACGGTA, the “PBM E-score” value was -0.00396.
